Data from PubChem BioAssay AID493014 (National Center for Advancing Translational Sciences (NCATS), 2011).
The campaign covered roughly 340,000 compounds. About 170 (0.05%) were called active. About 26% were inconclusive and are not listed. The call rests on the fitted dose curve; in most records, active means well fitted inhibition curve with a large enough effect in the signal ratio, with a control signal flat (not every such curve was filed as active); inconclusive means small, poorly fitted or top-dose-only effect, or effect the other way, or a change in a side signal; inactive means flat fitted curve, though single readings scatter; the % refers to the signal ratio. The entries are a selection whose mix differs from that of the whole data set.

Test: qHTS Assay to Find Inhibitors of Chronic Active B-Cell Receptor Signaling;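 on activity change, negative = inhibition: plate controls were basal doxycycline-induced cells for no effect and cells given 10 µM MG132 for full effect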
Details: ABC-DLBCL IkBa-CBG/CBR reporter, luminescence ratio (green luciferase fused to IkBa over red control in TMD8 lymphoma cells), 4 h; series mostly up to 46.1 µM; activity change, negative = inhibition: at the top concentration
Summary of the method: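 TMD8 human ABC-DLBCL cells with doxycycline-inducible IκBα–green luciferase fusion and unfused red luciferase, in 0.5% FBS medium; compounds up to 46 uM, 4 h at 37C. Green/red luminescence ratio, filter-overlap corrected, fitted to concentration-response curves.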
Potency means the concentration at half of the fitted maximal effect.

Compound | activity change, negative = inhibition | Potency
Cc1cccc(-c2ccc3ncnc(NCc4cccs4)c3c2)c1 | inactive: 7.39% | 
O=C(Nc1ccc2c(c1)CCCN2C(=O)c1cccs1)c1c(F)cccc1F | inactive: 7.61% | 
CC(C)(C)NC[C@H](O)COc1cccc2c1CCCC2=O | inactive: 1.86% | 
C[C@H]1CC[C@]2(O[C@H](CCO)C[C@@H](O)[C@@H]2O)O1 | inactive: -1.57% | 
CCOC(=O)[C@@H]1[C@H]2COc3ccc(Br)cc3[C@H]2N2C(=O)N(c3cccc(F)c3)C(=O)[C@]12C | inactive: 11.6% | 
O=C(NCc1ccccc1)C1=C[C@H](c2csc3ccccc23)C[C@H](OCCCCO)O1 | inactive: 5.18% | 
O=C(/C=C\c1ccccc1OC(=O)c1ccccc1F)c1cc2ccccc2o1 |  | active: 13 µM
CN1CCN(C(=O)C2=C[C@H](c3coc4ccccc4c3=O)C[C@H](OCc3ccc(CO)cc3)O2)CC1 | inactive: -0.866% | 
NC(=O)C1CCN(c2nc(-c3ccc(Br)cc3)cs2)CC1 |  | inactive
CCO[C@@H]1OC(C(=O)NC2CC2)=C[C@H](c2c[nH]c3ccccc23)[C@H]1CCCO | inactive: 0.043% | 
Cn1ccnc1SCC(=O)c1ccc(Cl)cc1 |  | active: 17.8 µM
C[C@H]1CC[C@@]2(O[C@H](CCO)C[C@@H](O)[C@@H]2O)O1 | inactive: 18.5% | 
CCc1nn(CCCN2CCN(c3cccc(Cl)c3)CC2)c(=O)n1CCOc1ccccc1 | inactive: 4.32% | 
Nc1ncnc2nc[nH]c12 | inactive: 1.21% | 
O=C(OCC#CCSc1nnc(-c2cccc3ccccc23)o1)c1ccc(Br)cc1 | inactive: 1.03% | 
NC(=O)C1CCN(c2nc(-c3cccs3)cs2)CC1 | inactive: -3.64% | 
CCCCCn1c(=N)n(CC(O)COc2ccccc2OC)c2ccccc21 (stereo not drawn) | inactive: -7.29% | 
Cc1c(N=C/C=C2/N(C)c3ccccc3C2(C)C)c(=O)n(-c2ccccc2)n1C | inactive: 12.8% | 
Cc1cc(/C=C2\NC(=O)NC2=O)c(C)n1-c1ccc(N2CCOCC2)cc1 | inactive: 4.45% | 
C=CCC[C@H](Cc1ccc(F)cc1)C(=O)OC[C@@H](C)NC(=O)[C@H](CC=C)CC(=O)N(CCO)Cc1ccccc1 | inactive: 4.13% | 

Compound | activity change, negative = inhibition | Potency
CN1CCN(C(=O)c2ccc3c(c2)N(Cc2cccc(Cl)c2)C(=O)c2ccccc2S3(=O)=O)CC1 | inactive: 2.85% | 
CCN1C(=NCCN2CCOCC2)N[C@@H](c2ccccc2)C(C(=O)OC)=C1C | inactive: -13.3% | 
Cn1c(SCC(=O)N/N=C/C=C\c2ccccc2[N+](=O)[O-])nc2ccccc21 | inactive: -5.25% | 
COc1cc(/C=C/c2ccc(O)cc2)cc(OC)c1 |  | active: 12.6 µM
CCN1C(=NCCc2cccnc2)N[C@@H](c2ccccc2)[C@H](C(=O)OC)[C@H]1C | inactive: -12.3% | 
COc1ccc(NC(=S)Nc2ccccc2)cc1 | inactive: -1.31% | 
CCOC(=O)/C(C#N)=C\C1=C(N2CCCC2)CC(C)(CC)OC1 (stereo not drawn) | inactive: 21.1% | 
CCOC(=O)[C@@H]1[C@H]2COc3cc(OC)ccc3[C@H]2N2C(=O)N(c3ccc(Br)cc3)C(=O)[C@]12C | inactive: -5.29% | 
COc1cccc(-c2nc(-c3ccc(Br)o3)no2)c1 | inactive: 11.8% | 
C[C@@]12C(=O)N(c3ccccc3)C(=O)N1[C@@H]1c3ccccc3OC[C@@H]1[C@H]2c1ccccc1 | inactive: 6.81% | 
O=C(CCSCCc1ccccn1)Nc1cc(F)ccc1F | inactive: -6.43% | 
CCOC(=O)c1c(S(=O)(=O)N2CCCC(C(=O)Nc3ccc(C)cn3)C2)c(C)n(C)c1C (stereo not drawn) | inactive: 3.63% | 
CC(C)(C)OC(=O)N[C@@H](C(=O)OC(C)(C)C)c1ccc2c(c1)OCO2 | inactive: -0.712% | 
CNCCCC12CCC(c3ccccc31)c1ccccc12 | inactive: -8.13% | 
CCC(C)[C@H](NC(=O)N1CC(=O)Nc2ccccc21)C(=O)N[C@@H](Cc1c[nH]c2ccccc12)C(=O)O (stereo partly drawn) | inactive: 3.2% | 
CC(C)(C)CN1C(N)=NC[C@@H]1Cc1ccc(O)cc1 | inactive: -1.61% | 
CC(Sc1ccc2ccccc2n1)C(=O)O (stereo not drawn) | inactive: -3.66% | 
CC1CC(C)(C)NC(=S)O1 (stereo not drawn) | inactive: 2.14% | 
O=C(NC(=S)N1CCOCC1)c1ccc([N+](=O)[O-])cc1 |  | active: 23.1 µM
CC(=O)C[C@@H](O)CC(=O)[C@H]1OC(=O)CCCCCCCCc2ccccc21 | inactive: -2.72% | 

Compound | activity change, negative = inhibition | Potency
Nc1ccc(C(=O)O)cc1 | inactive: -12% | 
C=CC[C@H](CC(=O)NCCO)C(=O)N[C@@H](COC(=O)[C@@H](CC=C)CC(=O)OC(C)(C)C)Cc1c[nH]c2ccccc12 | inactive: 0.175% | 
Clc1ccccc1-c1nc(-c2ccncc2)no1 | inactive: -1.98% | 
COc1ccc(/C=C2\C(=O)ON=C2c2ccccc2)cc1OC | inactive: 7.2% | 
O=C(NCc1nc2ccccc2[nH]1)C1=C[C@@H](C2CC2)C[C@@H](OCc2ccc(CO)cc2)O1 | inactive: -16.9% | 
CC(=O)CCCCn1c(=O)c2c(ncn2C)n(C)c1=O | inactive: -1.52% | 
C[C@@H]1COC(=O)[C@H](CC(=O)OC(C)(C)C)C/C=C\C[C@@H](CC(=O)N[C@H](CO)Cc2ccccc2)C(=O)N1 | inactive: -2.22% | 
COC(=O)N1C(=O)[C@](Cc2ccccc2)(c2ccccc2)N1C(=O)OC | inactive: -0.551% | 
O=C1OC[C@H]2CCCN2C(=O)[C@@H](CC(=O)N(CCO)Cc2ccccc2)C/C=C\C[C@H]1Cc1ccc(F)cc1 | inactive: -0.0341% | 
CCCSc1ccc([C@@H]2[C@H]3C(=O)N(C)C(=O)[C@H]3[C@]3(C(=O)OC)CCCN23)cc1OC | inactive: -2.7% | 
CC(=O)O[C@]1(C(C)=O)CCC2C3C=C(C)C4=CC(=O)CC[C@]4(C)C3CC[C@@]21C (stereo partly drawn) | inactive: -0.0693% | 
CCCN1C(=O)/C(=C/C=C2\N(CC)c3ccccc3C2(C)C)SC1=S | inactive: 9.24% | 
O=C1NCC(O)=C1C=NC12CC3CC(CC(C3)C1)C2 | inactive: -7.87% | 
O=C1NC[C@@H](c2ccccc2)OC(=O)[C@@H](Cc2ccc(F)cc2)C/C=C\C[C@@H]1CC(=O)N(CCO)Cc1ccccc1 | inactive: 4.35% | 
O=C1N=C(N2CCOCC2)S/C1=C\c1ccc(-c2ccccc2Cl)o1 | inactive: 1.43% | 
C[C@H](CO)N1C[C@H](C)[C@@H](CN(C)C(=O)NC2CCCCC2)Oc2c(NC(=O)C3CCCCC3)cccc2C1=O | inactive: 0.173% | 
O=C(O)c1cc(O)c2c(c1)[C@@H]([C@H]1c3cc(C(=O)O)cc(O)c3C(=O)c3c(O[C@@H]4O[C@H](CO)[C@@H](O)[C@H](O)[C@H]4O)cccc31)c1cccc(OC3O[C@H](CO)[C@@H](O)[C@H](O)[C@H]3O)c1C2=O (stereo partly drawn) | inactive: 0.177% | 
COc1ccc(S(=O)(=O)Nc2ccc3c(c2)C(=O)N([C@@H](C)CO)C[C@H](C)[C@H](CN(C)S(=O)(=O)c2ccc(F)cc2)O3)cc1 | inactive: -2.91% | 
